From the supplement of paper PMC3334620
The full ranking holds about 33,000 sequences; the median of “E-score (-0.5 to 0.5)” is about -0.054, and the highest 2% start at about 0.35. The list shows a part of the results.

The sequences below were run against T1, Stb5 (UniProt P38699) (assay: PBM E-score (8-mer binding enrichment) (E-score (-0.5 to 0.5)); higher = stronger / more preferred TF binding; most listed sequences are background and not binding sites). Details: protein concentration: 200 nM; construct: GST-full length.
T1 sequence: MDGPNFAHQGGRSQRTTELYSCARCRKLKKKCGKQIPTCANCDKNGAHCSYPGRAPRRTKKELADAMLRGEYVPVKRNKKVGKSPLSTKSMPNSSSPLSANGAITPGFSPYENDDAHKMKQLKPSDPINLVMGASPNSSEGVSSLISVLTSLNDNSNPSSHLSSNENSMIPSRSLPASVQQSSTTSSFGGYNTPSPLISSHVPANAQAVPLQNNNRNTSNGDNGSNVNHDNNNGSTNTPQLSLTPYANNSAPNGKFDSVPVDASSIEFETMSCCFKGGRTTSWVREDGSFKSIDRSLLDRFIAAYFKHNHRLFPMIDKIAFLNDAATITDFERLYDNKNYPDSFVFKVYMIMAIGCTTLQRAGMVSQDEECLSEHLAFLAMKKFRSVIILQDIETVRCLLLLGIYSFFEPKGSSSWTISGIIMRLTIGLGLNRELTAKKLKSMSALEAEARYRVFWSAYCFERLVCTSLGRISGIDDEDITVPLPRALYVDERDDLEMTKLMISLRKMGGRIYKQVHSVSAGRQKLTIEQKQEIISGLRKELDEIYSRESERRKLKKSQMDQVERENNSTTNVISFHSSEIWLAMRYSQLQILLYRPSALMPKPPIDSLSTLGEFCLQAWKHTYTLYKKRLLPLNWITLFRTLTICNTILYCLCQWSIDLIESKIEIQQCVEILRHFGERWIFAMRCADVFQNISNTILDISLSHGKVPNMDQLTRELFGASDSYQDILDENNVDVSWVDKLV
Protocol: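 Universal 'all 10-mer' protein binding microarrays (Agilent AMADID 015681) probed with GST-tagged S. cerevisiae TFs (full-length or DBD) made by in vitro transcription/translation (PURExpress), about 100-200 nM. Bound TF was detected with fluorescent anti-GST. Each ungapped 8-mer (which stands for itself and its reverse complement) is scored by the PBM enrichment score (E-score), a modified Wilcoxon-Mann-Whitney statistic from -0.5 to +0.5, computed with the Universal PBM Analysis Suite. Scale: above 0.35 generally sequence-specific binding.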
In the case of CTCCAGGA, the “PBM E-score” value is reported as -0.186. With AACATGTT the “PBM E-score” value was -0.149. In the case of CACGGAGA, the “PBM E-score” value is reported as 0.248. TAAAATCA was tested, and the “PBM E-score” value was -0.152. For CGACCGCC, the “PBM E-score” value was 0.255. With ACGTATAG the “PBM E-score” value was 0.0119. GACTAAAA was tested, and the “PBM E-score” value was 0.208. With AACTTACC the “PBM E-score” value was -0.13. In the case of CTAACAAC, the “PBM E-score” value is reported as -0.177. With GTTTCCAA the “PBM E-score” value was -0.0451. In the case of ATGCGCAG, the “PBM E-score” value is reported as -0.147. With ATAGGATA the “PBM E-score” value was 0.0852. With AGTCCCTA the “PBM E-score” value was -0.197. With GGGTCAAA the “PBM E-score” value was 0.103. For GTCTAATA, the “PBM E-score” value was 0.101. In the case of TCGGGAAA, the “PBM E-score” value is reported as 0.232. With TATGATAA the “PBM E-score” value was 0.00992. For AAACGCAT, the “PBM E-score” value was -0.0868. ATTTGACA was tested, and the “PBM E-score” value was -0.0526. With CCATCCGA the “PBM E-score” value was -0.0433. In the case of ATAATCAA, the “PBM E-score” value is reported as 0.18. AGAGTGCC was tested, and the “PBM E-score” value was -0.229. For GCAATTTA, the “PBM E-score” value was 0.101. For CGGCGGAG, the “PBM E-score” value was 0.347. In the case of CTAAGGGC, the “PBM E-score” value is reported as -0.198. With AAAGTAGA the “PBM E-score” value was -0.193. GCACTGGA was tested, and the “PBM E-score” value was -0.271. For GATCGCTA, the “PBM E-score” value was 0.00336. CTCAGGGA was tested, and the “PBM E-score” value was -0.334. For GCCAATCC, the “PBM E-score” value was 0.066. CCTGCTCG was tested, and the “PBM E-score” value was -0.162. CTCGACGA was tested, and the “PBM E-score” value was -0.243. With ATGCGGCA the “PBM E-score” value was 0.156. With GCAGGGGC the “PBM E-score” value was -0.22. With GTCTGATA the “PBM E-score” value was -0.172. With AGAAACCG the “PBM E-score” value was 0.0444. CGCTCTAC was tested, and the “PBM E-score” value was -0.0196. ACTTTACA was tested, and the “PBM E-score” value was 0.013. In the case of TATTGGAA, the “PBM E-score” value is reported as -0.121. For AGGCTCGG, the “PBM E-score” value was -0.00345. With CAGCGCAC the “PBM E-score” value was 0.0378. For ATTGCCGG, the “PBM E-score” value was 0.408. With CCCGACTA the “PBM E-score” value was 0.312. In the case of CGGATAAA, the “PBM E-score” value is reported as 0.29. For ACAGGCAG, the “PBM E-score” value was -0.204. In the case of ACACCTGA, the “PBM E-score” value is reported as -0.0816. With AAGGAATC the “PBM E-score” value was -0.122. GTTAGCGA was tested, and the “PBM E-score” value was -0.0414. For ATGCTTCC, the “PBM E-score” value was -0.157. With ATTACCCG the “PBM E-score” value was 0.176. CTCCGCTC was tested, and the “PBM E-score” value was 0.291. In the case of ACACGGCA, the “PBM E-score” value is reported as 0.16. For TCAGCTCA, the “PBM E-score” value was 0.0671. In the case of CATCAATG, the “PBM E-score” value is reported as -0.23. For CTGTTCAC, the “PBM E-score” value was -0.269. In the case of CACTGACA, the “PBM E-score” value is reported as -0.0323. In the case of AAAGTCTG, the “PBM E-score” value is reported as -0.338. With CTCCGGTA the “PBM E-score” value was 0.316. AACTTCGT was tested, and the “PBM E-score” value was -0.19. CCCACCCG was tested, and the “PBM E-score” value was -0.0957. For GTTTTTGA, the “PBM E-score” value was -0.0784. ACGGCATC was tested, and the “PBM E-score” value was 0.198. ACCCAATG was tested, and the “PBM E-score” value was -0.177. In the case of ATGTACTC, the “PBM E-score” value is reported as 0.0834. With GTTGTGCA the “PBM E-score” value was -0.178. For CCGGTGGC, the “PBM E-score” value was 0.291. For AAGACGGT, the “PBM E-score” value was 0.173. With GCCTTCTA the “PBM E-score” value was -0.239. With AGCCTCAA the “PBM E-score” value was -0.188. With ACCTTATC the “PBM E-score” value was -0.0448. With AAGGTTGT the “PBM E-score” value was -0.19. With CCCGCACA the “PBM E-score” value was 0.305. With TTAACTAA the “PBM E-score” value was 0.00651. In the case of TCCCCACA, the “PBM E-score” value is reported as -0.184. With GCAAAGTA the “PBM E-score” value was -0.229. In the case of AACCTGGG, the “PBM E-score” value is reported as -0.188. In the case of AAATTCTA, the “PBM E-score” value is reported as -0.144. For ACGGATCA, the “PBM E-score” value was 0.104. In the case of CCGGTATA, the “PBM E-score” value is reported as 0.325. With AGCGGCGA the “PBM E-score” value was 0.317. With GCTTTGCC the “PBM E-score” value was -0.223. For AGTCAATA, the “PBM E-score” value was -0.0444. With GCTTCCAA the “PBM E-score” value was -0.0857. For CCTTACCC, the “PBM E-score” value was -0.106. In the case of AATACCCT, the “PBM E-score” value is reported as -0.00882. For CATACGAG, the “PBM E-score” value was -0.166.
